Article PMC4336329 (PLoS ONE, 2015)
About 2,200 (0.71%) of roughly 310,000 compounds showed an effect of 50% or more. Effects have a minus sign here. Some of the results follow.

The molecules below were run against human ether-à-go-go-related gene (hERG) potassium channel (human, UniProt Q12809) (assay: primary screen, population patch clamp on CHO cells stably expressing hERG).
human ether-à-go-go-related gene (hERG) potassium channel, sequence (Q12809 whole entry, looked up): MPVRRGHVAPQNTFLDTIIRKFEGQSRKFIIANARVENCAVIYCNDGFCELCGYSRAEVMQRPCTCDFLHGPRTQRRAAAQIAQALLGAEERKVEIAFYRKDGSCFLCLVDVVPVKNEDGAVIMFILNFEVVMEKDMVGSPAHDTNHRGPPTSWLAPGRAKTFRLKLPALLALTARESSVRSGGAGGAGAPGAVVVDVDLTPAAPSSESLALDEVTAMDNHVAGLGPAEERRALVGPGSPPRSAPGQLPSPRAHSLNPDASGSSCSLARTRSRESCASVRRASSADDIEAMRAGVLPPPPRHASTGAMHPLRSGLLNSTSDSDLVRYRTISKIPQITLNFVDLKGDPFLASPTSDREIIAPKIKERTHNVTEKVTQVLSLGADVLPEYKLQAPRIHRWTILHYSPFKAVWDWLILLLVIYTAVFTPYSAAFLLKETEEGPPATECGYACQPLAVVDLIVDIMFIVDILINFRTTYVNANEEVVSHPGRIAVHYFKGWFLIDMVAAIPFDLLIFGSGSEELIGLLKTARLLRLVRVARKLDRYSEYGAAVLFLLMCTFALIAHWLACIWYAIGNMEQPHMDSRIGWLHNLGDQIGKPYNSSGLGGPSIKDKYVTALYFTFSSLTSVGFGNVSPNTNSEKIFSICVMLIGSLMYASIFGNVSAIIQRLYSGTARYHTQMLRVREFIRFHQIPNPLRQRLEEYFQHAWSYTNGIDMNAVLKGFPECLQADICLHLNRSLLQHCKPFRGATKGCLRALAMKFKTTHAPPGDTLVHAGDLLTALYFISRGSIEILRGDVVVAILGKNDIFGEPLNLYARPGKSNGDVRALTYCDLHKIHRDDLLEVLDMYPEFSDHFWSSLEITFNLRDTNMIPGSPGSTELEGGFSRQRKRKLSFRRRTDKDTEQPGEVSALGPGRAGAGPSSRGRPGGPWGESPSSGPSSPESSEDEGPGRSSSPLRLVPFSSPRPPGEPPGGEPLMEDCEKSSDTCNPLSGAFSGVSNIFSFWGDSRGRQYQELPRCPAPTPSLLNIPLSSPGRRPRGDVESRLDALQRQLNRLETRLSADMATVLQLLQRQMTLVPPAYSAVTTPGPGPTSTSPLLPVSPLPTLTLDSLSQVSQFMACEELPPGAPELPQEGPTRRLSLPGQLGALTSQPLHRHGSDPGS

SMILES | hERG current change (%, negative = inhibition) at 1uM [%]
CC(C)(C)c1ccc(COn2c(=O)c(-c3ccco3)[n+]([O-])c3ccccc32)cc1 | 20.1
Nc1nc(NCC(=O)O)nc(NCc2ccccc2)c1[N+](=O)[O-] | 13.3
CCC(Sc1nc2c(cnn2-c2ccccc2)c(=O)[nH]1)C(=O)OC (stereo not shown) | 2.96
O=C(COC(=O)c1n[nH]c(=O)c2ccccc12)c1ccccc1 | 12.9
O=C(CN1C(=O)C2C3C=CC(C3)C2C1=O)Nc1nc(SCc2ccc(Cl)cc2)n[nH]1 (stereo not shown) | 3.35
Cn1c(NCc2cccnc2)nc2c1c(=O)n(Cc1ccccc1F)c(=O)n2C | 2.05
CC(=O)N1CCN(Cc2nc3cc(NC(=O)COc4ccccc4)ccc3n2C)CC1.Cl | 6.75
Cc1cccc(N(C(=O)c2ccc(CN3CCOCC3)o2)C(C(=O)NC(C)(C)C)c2ccc(F)cc2)c1 (stereo not shown) | 13.3
CC(=O)Nc1cccc(/C(C)=N/NC(=O)c2cccs2)c1 | 12.7
CCOc1ccc(CCNC(=O)COC(=O)Cn2cnc3ccccc3c2=O)cc1OCC | 14.2
C/C(=N\Nc1nc2ccccc2[nH]1)c1ccc2c(c1)OCO2 | 12.7
Cc1ccc(C)c(NC(=O)CN(C)C(=O)c2cccc(-n3cccc3)c2)c1 | -1.33
Cc1ccc(N)c(N)c1 | 7.71
O=C(COC(=O)/C=C/c1ccco1)NCc1ccco1 | 9.79
NC(=O)[C@@H]1CCCN1Cc1nc(Cc2ccccc2F)no1 | 9.4
N#Cc1nccnc1S(=O)(=O)c1cccs1 | 11.4
Cc1cc(NC(=O)CCC(=O)N(Cc2ccco2)C(C(=O)NC2CCCCC2)c2ccccc2)no1 (stereo not shown) | 8.22
Cc1ccc(NC(=S)N2CCC(NC(=O)c3cccc(F)c3)CC2)cc1 | 6.17
OCCC1CN(Cc2cccc(-c3ccco3)c2)CCN1Cc1ccsc1 (stereo not shown) | -17.3
COc1cc2c(cc1OC)[C@H](C)N(C(=O)CSc1nc(O)c(C(C)C)c(=O)[nH]1)CC2 | 6.61
CCC[N+](CC#Cc1ccccc1)(CCC)CC(=O)c1ccc(Cl)cc1 | -9.39
C=CCNC(=S)N1CCC(C(=O)c2ccc(OC)cc2)CC1 | -3.09

SMILES | hERG current change (%, negative = inhibition) at 1uM [%]
COC(=O)C1=CN(Cc2ccc(F)cc2)C=C(C(=O)OC)C1c1ccc(O)c(OC)c1 | 6.53
CCN(CC)c1ccc(C2N(C(=O)N3CCOCC3)CCN2S(=O)(=O)c2ccc(C)cc2)cc1 (stereo not shown) | 1.26
CCOC(=O)C1CCN(C2CCN(Cc3nc(-c4ccccc4)no3)CC2)CC1 | -38.2
O=C(CSc1nnc(C2CC2)n1CC1CCCO1)Nc1cccc(Cl)c1 (stereo not shown) | -2.01
CC(C)c1ccc(N=Cc2c(O)c3ccccc3oc2=O)cc1 | 13.1
COc1ccc(N(Cc2cc3cccc(C)c3[nH]c2=O)S(=O)(=O)c2ccc(Cl)cc2)cc1 | 10.7
Cc1cccc(N2C(=O)/C(=C/c3ccc(N4CCN(C)CC4)o3)C(=O)NC2=S)c1C | 13.9
CCn1c(-c2cccc(S(=O)(=O)N3CCCC3)c2)n[nH]c1=S | 1.5
CN(C)S(=O)(=O)c1cccc(NC(=O)c2cc(=O)[nH]c3ccccc23)c1 | 4.2
O=C1CC(NC23CC4CC(CC(C4)C2)C3)C(=O)N1c1ccc2c(c1)OCO2 (stereo not shown) | 9.1
O=C(CNC(=O)c1ccc(Cl)cc1Cl)OCN1C(=O)c2ccccc2C1=O | 8.3
O=C(NCc1ccccc1CN1CCCC1)c1cccc(S(=O)(=O)Nc2ccc(F)cc2)c1 | -35.7
CCCc1cc(=O)[nH]c(SCC(=O)NC2(C#N)CCCCC2)n1 | 5.65
CCOC(=O)c1c(NC(=O)CCC(=O)N2CCOCC2)sc2c1CC(C)(C)OC2 | 3.56
O=C(O)c1cc(=O)n(Cc2ccccc2)c(=O)[nH]1 | 9.85
Cc1ccc(SCc2noc(C(=O)NC(C)C)c2C(=O)O)cc1C | 14
COc1ccc(CCN2CCCn3c2nc2c3c(=O)n(CC(C)C)c(=O)n2C)cc1OC | 2.4
COc1cc(C(=O)NCC2(c3ccccc3)CCCC2)ccc1OC(C)C | 9.95
CCOC(=O)C(NC(=O)Nc1ccc(Cl)cn1)(Oc1ccccc1)C(F)(F)F (stereo not shown) | 4.85
Cc1cccc(OCC(=O)Nc2nc3ccc([N+](=O)[O-])cc3s2)c1C | 15.6
CN(Cc1ccccc1F)C(=O)CNC(=O)Cc1cccc2ccccc12 | 8.46
O=C(NCCNS(=O)(=O)c1ccc(Cl)cc1)c1cc(OCC(F)(F)F)ccc1OCC(F)(F)F | 11.7

SMILES | hERG current change (%, negative = inhibition) at 1uM [%]
Cc1ccc(Cl)cc1N(CC(=O)NC(C)c1ccccc1)S(C)(=O)=O (stereo not shown) | 16.6
CN(CCN1CCc2ccccc2C1)Cc1nc(-c2ccc3c(c2)OCO3)no1 | -13
CC1CC(C)CN(CCCNC(=O)c2cc3c(=O)[nH]c4ccccc4c3n2C)C1 (stereo not shown) | 15.1
Cc1cccc(N(CC(O)CN2CCCC2)S(=O)(=O)c2ccccc2)c1 (stereo not shown) | -35.3
Cc1ccc(C(=O)CNc2ccc(C)cc2C)cc1 | 16.1
O=C(c1coc(=O)c(Br)c1)N1CCC(C(O)(c2ccccc2)c2ccccc2)CC1 | 9.97
Cc1cccc(NC(=O)CN2C(=O)c3ccccc3S2(=O)=O)n1 | 17.1
CCC(C)(C)NC(=O)C(c1ccccc1)N(Cc1cccs1)C(=O)Cn1nnc2ccccc21 (stereo not shown) | 11.1
O=C(c1cccc([N+](=O)[O-])c1)c1ccc2c(c1)OCCOCCOCCO2 | -9.73
CCn1c(-c2cccs2)nc2ccccc21 | -1.08
COc1ccccc1CN=C1NC(=O)C(CC(=O)Nc2ccc(OC)c(OC)c2)S1 (stereo not shown) | 14.5
Cc1ccc(/C=N/NC(=O)Cc2c[nH]c3ccccc23)c(C)c1 | 12.6
O=C(Cc1csc(Nc2nc(=S)[nH]c3ccccc23)n1)NCCCN1CCN(c2ccccc2F)CC1 | 8.64
COc1ccccc1Nc1nc(-c2ccccc2O)nc2ccccc12 | 12.4
COC(=O)CSc1nc(N)c(NC(=O)c2ccc(OC)c(OC)c2)c(=O)[nH]1 | 20.4
COc1ccc2c(c1)nc(SCC(=O)c1cccs1)n2C | 12.3
Cc1cc2nc(/C(C#N)=C\c3ccc(-c4ccccc4C(=O)O)o3)[nH]c2cc1C | 15.5
COc1cc(C(=O)N2CCC(NC(=O)C(Cc3ccccc3C)NC(C)=O)CC2)cc(OC)c1OC (stereo not shown) | 6.3
O=C(Cn1c(=O)oc2ccccc21)Nc1cccc(Cl)c1 | 3
CCNC(=S)N(CCc1c(C)[nH]c2ccc(C)cc12)Cc1cccs1 | 9.67
CCn1cc(CN2CCCC(C(=O)c3cccc(OC)c3)C2)c(C)n1 (stereo not shown) | 0.377
CCCCOc1cccc(C(=O)Nc2ccc(S(=O)(=O)Nc3cc(C)on3)cc2)c1 | 6.16

SMILES | hERG current change (%, negative = inhibition) at 1uM [%]
COc1ccc(N2CCN(C(CNC(=O)C(=O)NC3CCCC3)c3ccco3)CC2)cc1 (stereo not shown) | 1.68
O=C(NCc1ccccn1)c1ccc2c(=O)n(CCc3ccccc3)c(=O)[nH]c2c1 | 10.2
O=C(NCc1cccs1)c1cc(S(=O)(=O)N2CCOCC2)ccc1N1CCCC1 | -12.1
Cc1cc(O)c(-c2ccno2)cc1Cl | 10.2
Cc1c(NC(=O)/C=C/c2cn(-c3ccccc3)nc2-c2ccc(F)cc2)c(=O)n(-c2ccccc2)n1C | 14.9
CNC(=O)NNC(=O)c1onc(-c2c(Cl)cccc2Cl)c1C(=O)OC | 3.79
Cn1cccc1CC(=O)N/N=C/c1cccc2ccccc12 | 5.44
COc1cc(NC(=S)N2CCN(c3ccccn3)CC2)cc(OC)c1OC | 6.3
O=C(Cn1cnc2c(nnn2-c2ccccc2)c1=O)N1CCOCC1 | 9.34
COc1ccc(CCNC(=O)C2CCN(c3ccc(N4CCOCC4)nn3)CC2)c(OC)c1 | 15.6
Cc1ccc(C)c(S(=O)(=O)N2CCN(C(=O)c3ccc(N4CCCC4)c([N+](=O)[O-])c3)CC2)c1 | 10.8
C=CCn1cc(C(=O)c2cc(Br)ccc2O)cc(C#N)c1=O | 5.08
O=C(COc1ccc(F)cc1)N1CCCc2ccccc21 | 15.9
Cc1ccccc1NC(=O)C1CC(=O)N(c2ccc3c4c(cccc24)CC3)C1 (stereo not shown) | 7.22
CC(Sc1nnc(Cc2cccs2)n1C1CCCCC1)C(=O)NCc1ccco1 (stereo not shown) | 0.643
C=CCn1c(C)c(C(C)=O)c(N2CCN(C(c3ccccc3)c3ccccc3)CC2)nc1=S | 10.3
CCOC(=O)C(=O)/C(C#N)=C/Nc1ccc(Cl)cc1 | 10.5
CCOC(=O)C1CCCN(C(c2ccccn2)c2c(C)[nH]c3ccccc23)C1 (stereo not shown) | 14.3
Cc1cc(Cl)ccc1OCC(=O)NC(=S)Nc1ccc(Cl)cn1 | 11
